Reference: the supplement of paper PMC10185492
Some of the results follow. These are enrichments in a pooled selection; single values are uncertain.

system: SARS-CoV-2 3CLpro (nsp5); assay: substrate phage enrichment score (protease-eluted vs HEPES control, +1 offset) (ratio); higher = better cleaved substrate; conditions: selection round: 3; protease elution time: 0.5 h
Description: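 Random heptapeptide substrate phage display (M13 pIII fusion, heptapeptide between an N-terminal biotinylated AviTag GLNDIFEAQKIEWHE and pIII; phages immobilised on streptavidin) eluted by cleavage with 50 nM protease in 20 mM HEPES at 37 °C. Selected phages were NGS sequenced, and the enrichment score is (reads in protease sample + 1)/(reads in HEPES blank-selection control + 1).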

| Substance | substrate phage enrichment score |
| --- | --- |
| QKKRTPV | > 40 |
| PAGCAST | 1 |
| KAAARLQ | > 24 |
| NPRSTAP | 2.67 |
| QGEIDSH | > 23 |
| HTSGQRF | 2.29 |
| ALSLCPS | 30.5 |
| QVSELTG | > 39 |
| RTRLQGQ | > 28 |
| ELRQGYN | 8 |
| GRSTRLQ | 13 |
| KRTSPAR | 1.42 |
| TEQEFFQ | 12 |
| EPSRNRT | > 48 |
| ELSEHRQ | > 70 |
| STRCMLQ | > 21 |
| LKSAQLQ | > 25 |
| ISAAAHH | 1.12 |
| AAVSILH | > 117 |
| RCQGRIR | > 30 |
| DLKSMPQ | > 23 |
| VPRSRIG | > 30 |
| QPAGSAA | > 41 |
| EYLMGPS | 0.923 |

| Substance | substrate phage enrichment score |
| --- | --- |
| SAAAYHH | 1.52 |
| RQPSCLH | > 22 |
| LNNNPGR | 0.261 |
| RQNKLKP | > 25 |
| ITPQENA | > 26 |
| HGSTHAV | 2.88 |
| NRLSGVK | > 22 |
| CVLLQSH | > 87 |
| QHFQGGS | 0.724 |
| QELLLHS | 6.67 |
| TQAAHHH | 1.27 |
| WRPIGKQ | 20.4 |
| KPYFQGG | 0.846 |
| VITRPQG | 1.3 |
| QSRLATQ | 4 |
| NTKRRPP | > 33 |
| VTKSEAQ | > 53 |
| LPRCSLC | 8 |
| VYFQGGS | 1.73 |
| AAAHHHN | 1.15 |
| DQQRANY | 3.38 |
| TEYKVNC | > 42 |
| PEQIESY | 17 |
| INATDRR | 0.2 |

| Substance | substrate phage enrichment score |
| --- | --- |
| DFQGGSA | 0.743 |
| ASHKSSL | > 36 |
| CSCTHTK | 1.5 |
| HAKHMTE | 10.5 |
| SRLQSYQ | > 51 |
| RENLNPT | > 24 |
| TSMNGQR | 5 |
| SGCSWAQ | 16 |
| STTVQMQ | > 33 |
| PMSHGLM | 2.14 |
| HAAAHHH | 1.01 |
| GLYFQGG | 2.24 |
| SAAAHRH | 0.6 |
| SNVPVML | > 23 |
| SAAPHQH | 0.786 |
| LTTGDDS | 0.875 |
| TRPKGEK | > 32 |
| APYGPRG | 10 |
| WTDRVEC | 6.33 |
| MKHACQT | > 25 |
| EAAAHHH | 1.05 |
| SLSGNPN | > 30 |
| THPEWPW | 2.24 |
| VSERTPH | > 85 |

| Substance | substrate phage enrichment score |
| --- | --- |
| SGQVTLQ | > 48 |
| VYRLPHR | 13.5 |
| SKRGANG | 7 |
| SAASSRQ | > 23 |
| ANIPPSK | > 33 |
| LSKRDRC | 2.45 |
| VPSTRLQ | > 62 |
| SRISPTK | 1.36 |
| KCTAGEK | 4 |
| RNSSRTA | > 40 |
| EVGLPQA | 7.33 |
| ELRLTTR | 4.27 |
| SESAQWG | 2.44 |
| PLSPHNQ | > 25 |
| WPCALQC | > 199 |
| PPKVRLQ | 14.8 |
| DDVNWPD | 2.67 |
| KGTLTPP | 11.5 |
| SNFTSGQ | 0.706 |
| NAAAHHH | 1.01 |
| VSVLQSS | > 41 |
| AQTRIEN | 0.696 |
| ARPMGGR | 0.865 |
| NASSLQS | > 38 |

| Substance | substrate phage enrichment score |
| --- | --- |
| PTLPILQ | > 54 |
| AVREHRQ | 2.18 |
| NTLTNLQ | > 21 |
| HSAAAHH | 0.649 |
| RTSPTYM | > 21 |
| LSNDRGQ | > 33 |
| VSHCENN | 4.83 |
| TQSPTYV | > 24 |
| YHHHHGA | 0.778 |
| TNASVIQ | > 30 |
| STVRSKE | > 26 |
| YESGVIE | > 22 |
| RPTCRIQ | 3.39 |
| QLSPNKA | 6 |
| HPIGTRT | > 36 |
| VLRHGQE | 3.83 |
| RYLPGLQ | 10 |
| AARSMLQ | > 26 |
| GTAAHHH | 1.04 |
| EKCTKLQ | > 47 |
| SEITTLQ | > 90 |
